Test results reported in PubChem BioAssay AID488969 (Vanderbilt High Throughput Screening Facility, 2010).
In all, about 110,000 compounds were measured (“z-score”: median about -0.1, highest 2% from about 2 on). Some of the results follow. The source made the active and inactive calls.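 The calls were made as follows: active = z-score in the third read window above 3 or below -3; inactive = the rest.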

What follows are compounds tested against Metabotropic glutamate receptor 8 (Rattus norvegicus) (UniProt P70579) (assay: mGluR8 Gi/Go-coupled signaling modulation – cell-based, rat, thallium flux, HTS, primary screen (AID 488969)). Settings: HEK293 rat mGluR8, GIRK (G protein-gated inwardly rectifying potassium channel) thallium flux, FluoZin2; at 10 µM; stronger effect = higher value; submaximal glutamate (EC20) added with thallium.
Chain of UniProt P70579 (P70579 whole entry, looked up): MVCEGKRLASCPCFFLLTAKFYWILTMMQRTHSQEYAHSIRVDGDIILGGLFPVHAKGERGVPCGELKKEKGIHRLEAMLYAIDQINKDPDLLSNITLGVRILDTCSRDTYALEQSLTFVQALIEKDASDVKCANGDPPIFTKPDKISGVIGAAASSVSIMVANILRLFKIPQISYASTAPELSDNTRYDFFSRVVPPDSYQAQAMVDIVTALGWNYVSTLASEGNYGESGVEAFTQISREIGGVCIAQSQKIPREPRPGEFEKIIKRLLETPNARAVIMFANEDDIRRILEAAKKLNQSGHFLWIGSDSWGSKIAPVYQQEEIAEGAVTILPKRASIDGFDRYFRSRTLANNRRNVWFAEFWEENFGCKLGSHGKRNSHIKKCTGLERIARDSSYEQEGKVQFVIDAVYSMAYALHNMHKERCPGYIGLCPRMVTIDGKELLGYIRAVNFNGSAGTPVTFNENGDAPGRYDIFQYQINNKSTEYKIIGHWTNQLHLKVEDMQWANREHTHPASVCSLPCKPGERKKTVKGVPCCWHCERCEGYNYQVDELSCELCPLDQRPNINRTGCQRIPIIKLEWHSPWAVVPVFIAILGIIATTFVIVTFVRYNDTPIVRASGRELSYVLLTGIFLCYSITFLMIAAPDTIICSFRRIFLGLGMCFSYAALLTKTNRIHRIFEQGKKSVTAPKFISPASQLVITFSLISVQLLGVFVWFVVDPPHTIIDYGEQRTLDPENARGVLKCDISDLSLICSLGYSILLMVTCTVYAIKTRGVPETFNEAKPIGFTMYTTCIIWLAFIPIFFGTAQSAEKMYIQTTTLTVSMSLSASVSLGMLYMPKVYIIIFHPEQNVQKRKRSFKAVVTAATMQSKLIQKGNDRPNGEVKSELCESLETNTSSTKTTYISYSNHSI
`CCOc1ncccc1C(=O)OCc1ccc(C(=O)OC)o1` showed a z-score of 0.118.
Work on `CCOc1ccc(NC(=O)CN2C(=O)COc3ccc(Cl)cc32)cc1` yielded a z-score of -0.332.
Compound `C=CCn1c(SCC(=O)Nc2c(C)nn(Cc3ccccc3)c2C)nnc1C(O)c1ccccc1` (stereo not drawn) has a z-score of -0.057.
Work on `Fc1ccccc1NC(=S)NCCc1ccccc1` yielded a z-score of 0.134.
Compound `COc1ccc(CN2CC(C(=O)NCc3ccccn3)CC2=O)cc1` (stereo not drawn) has a z-score of -0.181.
`Cc1ccc(C(=O)NCCCNCCCN(C)C)cn1` showed a z-score of -0.136.
`Fc1ccc(NC(=S)NC23CN4CN(CN(C4)C2)C3)cc1` was tested, and the z-score was -0.123.
Compound `O=C(Nc1ccc(F)cc1)N1CCN(C/C=C/c2ccccc2)CC1` has a z-score of -1.74.
`O=c1c2c3c(sc2n2c(=S)[nH]nc2n1Cc1ccccc1)CN(Cc1ccccc1)CC3` was tested, and the z-score was 0.914.
In the case of `CCOc1ccc(C2C=C(c3ccc(C)cc3)Nc3nnnn32)cc1` (stereo not drawn), the z-score is reported as -0.306.
In the case of `Cc1ccc2nc(-c3ccc(NC(=O)CN4CCN(C(=O)c5ccco5)CC4)cc3)sc2c1`, the z-score is reported as -0.0309.
`Cc1cc(C)cc(NC(=O)c2nccnc2C(=O)O)c1` gave a z-score of -0.153.
`O=C(c1cn(-c2ccccc2)nc1-c1cccs1)N1CCOCC1` was tested, and the z-score was -0.0174.
Work on `O=C1CC(c2ccccc2)CC(O)=C1C=Nc1cccc(Cl)c1` (stereo not drawn) yielded a z-score of 0.0963.
Work on `CCOc1ccccc1C(=O)N1c2ccccc2Sc2ccccc21` yielded a z-score of -2.52.
For `COc1ccc(-c2n[nH]c(C)c2-c2ccc(Cl)cc2)c(O)c1`, the z-score was -0.148.
With `CCc1c(C)nc(SCCOc2ccc(OC(C)C)cc2)[nH]c1=O` the z-score was 0.325.
Compound `O=C1CNCc2[nH]c3ccccc3c2N1c1ccccc1` has a z-score of -0.0518.
Compound `CCOc1cc(C(=O)NCCN2C(=O)S/C(=C\c3cccnc3)C2=O)cc(OCC)c1OCC` has a z-score of -0.324.
Work on `C/C(CC(=O)Nc1ccc(C)c(Cl)c1)=N\NC(=O)Cc1ccccc1` yielded a z-score of -0.205.
In the case of `CC(C)(C)NC(=O)C(c1ccccc1)N(C(=O)c1csnn1)C1CC1` (stereo not drawn), the z-score is reported as 0.369.
With `COc1ccc(Oc2nc3ccccc3n3cccc23)cc1` the z-score was -0.22.
`COc1ccc(Nc2nc(-c3c[nH]c4ccccc34)cs2)cc1` showed a z-score of -0.0825.
Compound `COC(=O)N/N=C(\C)c1ccc2ccccc2c1OC(F)F` has a z-score of 0.0536.
`CC(NC(=O)NC(N)=O)(C(F)(F)F)C(F)(F)F` showed a z-score of 0.67.
`COc1ccc(-n2nc3ccc(NS(C)(=O)=O)cc3n2)cc1Cl` showed a z-score of 1.14.
With `CC(C)(C)C1CCc2c(C(=O)NNC(=O)/C=C/C(=O)O)csc2C1` (stereo not drawn) the z-score was -0.42.
`C/C(N)=C(/C#N)C(=O)COC(=O)COc1ccc(Cl)cc1` gave a z-score of -0.702.
`O=C(CN1CCN(c2ccc(O)cc2)CC1)NC1CCCc2ccccc21` (stereo not drawn) gave a z-score of -0.00537.
For `O=C(Nc1cccc(C(F)(F)F)c1)C12CC3CC(CC(C3)C1)C2`, the z-score was 0.142.
For `COCC(C)NC(=O)C1CC(c2cccc(Br)c2)=NO1` (stereo not drawn), the z-score was -0.185.
Compound `CCOCCCNC(=O)CN1CCN(Cc2ccccc2C)C1=O` has a z-score of -0.449.
Compound `CCOC(=O)CCNC(=O)CNC(=O)OCc1ccccc1` has a z-score of -0.374.
`CCOC(=O)Cn1c(-c2cccnc2Cl)nc2ccccc21` showed a z-score of -0.0219.
For `CC1CC(C)CN(C(=O)c2cc3c(s2)CCC3)C1` (stereo not drawn), the z-score was -0.126.
Work on `Cc1ccc(C(=O)OCC(=O)Nc2sc3c(c2C#N)CCC3)cc1` yielded a z-score of -0.0585.
With `COC(=O)c1cc(Br)c(=O)n(-c2ccc(F)cc2)c1` the z-score was -0.0505.
For `CCc1nnc(NC(=O)OCc2ccccc2)s1`, the z-score was -0.0773.
In the case of `Cc1cc(/C=N/n2cnnc2)c(C)n1-c1cc(Cl)ccc1Cl`, the z-score is reported as -1.65.
`Nn1c(SCC(=O)Nc2ccc(F)cc2)nnc1-c1ccccn1` was tested, and the z-score was 0.617.
`O=C(C1CCC(CNS(=O)(=O)c2cccc3nsnc23)CC1)N1CC=C(c2ccccc2)CC1` (stereo not drawn) showed a z-score of -0.904.
`CC(C)(NC(=O)N1CCCC1)c1cccc(C(C)(C)NC(=O)N2CCCC2)c1` showed a z-score of 0.129.
`CN1CCN(C2CC(=O)N(Cc3ccc(N4CCCC4=O)cc3)C2=O)CC1` (stereo not drawn) was tested, and the z-score was -0.043.
`O=C(CN1C(=O)c2ccccc2S1(=O)=O)Nc1ccccc1C(=O)NCc1ccco1` was tested, and the z-score was 0.0218.
Work on `CC1(C)Cc2ccccc2C(=NCCCCCC(=O)O)N1` yielded a z-score of 0.675.
`COCCOC(=O)C1=C(C)N(Cc2ccccc2)C(=O)NC1c1cccc(OC)c1OC` (stereo not drawn) gave a z-score of 0.0531.
In the case of `O=C(Nc1nnc(-c2ccc(Cl)cc2)o1)c1ccc(N2C(=O)CCC2=O)cc1`, the z-score is reported as active: 4.39.
`CC(=O)N1CCc2cc(NC(=O)c3ccc(C)cc3)ccc21` showed a z-score of -0.153.
With `COc1cc(CC(=O)OCC(=O)Nc2cc([N+](=O)[O-])ccc2Cl)cc(OC)c1OC` the z-score was -0.0706.
`CCOc1ccc(C(=O)OCCN(C)C)cc1` was tested, and the z-score was -0.849.
In the case of `Cc1c(NC(=O)C2CCCCN2S(=O)(=O)c2ccc(Cl)cc2)c(=O)n(-c2ccccc2)n1C` (stereo not drawn), the z-score is reported as 0.591.
For `CCNC(=S)NC1CC2CCC(C1)N2Cc1ccccc1` (stereo not drawn), the z-score was -0.198.
`COc1ccccc1N(CC(=O)NCc1cccnc1)S(C)(=O)=O` gave a z-score of 0.0794.
For `CCCC(=O)Nc1ccc(NC(=O)C2CC2)cn1`, the z-score was active: 13.2.
`Cc1[nH]nc2c1C(=O)CC(C)(C)C2` showed a z-score of 0.54.
Work on `Cc1ccc(CNC(=O)c2ccc(CN3CCOCC3)cc2)cc1` yielded a z-score of -0.0943.
Compound `O=C(Nc1ccc2c(c1)OCCO2)C1CCN(S(=O)(=O)c2cccs2)CC1` has a z-score of 0.373.
`CCCCOCCCNC(=O)N[C@@H](CCSC)C(=O)OC` showed a z-score of -0.312.
In the case of `Cn1c(NCc2c[nH]c3ccccc23)nc2ccccc21`, the z-score is reported as -0.594.
For `c1ccc(-c2cn3c(n2)CCC3)cc1`, the z-score was -0.186.
With `Cc1cc(NC(=O)CSc2nnc(NC(=O)C3CC(=O)N(c4ccccc4C)C3)s2)no1` (stereo not drawn) the z-score was -0.369.
With `COc1ccc(Cl)cc1NC(=O)C(C)N1CCN(C/C=C/c2ccccc2)CC1` (stereo not drawn) the z-score was -0.271.
`Cc1cc(NC(=O)C2CCCCC2C(=O)O)no1` (stereo not drawn) was tested, and the z-score was 0.513.
In the case of `CC(=NCc1ccco1)c1c(C)[nH]n(-c2nc3ccccc3s2)c1=O`, the z-score is reported as 0.306.
`N/C(=N\OC(=O)Oc1ccccc1)c1cccc([N+](=O)[O-])c1` gave a z-score of -0.11.
In the case of `CCN1CCN(C(=O)Cn2ncc3ccsc3c2=O)CC1`, the z-score is reported as -0.337.
Compound `O=C(/C=C/c1ccc([N+](=O)[O-])cc1)c1cccnc1` has a z-score of -0.543.
`Cc1ccc(S(=O)(=O)N2CCC(C(=O)Nc3ccc4c(c3)COC4=O)CC2)cc1` gave a z-score of -0.562.
In the case of `COc1ccc(-c2cc(-c3ccccc3)c(C#N)c(SCC(=O)Nc3ncc(C)s3)n2)cc1`, the z-score is reported as -0.161.
Work on `Cc1nc2cccc(C)n2c(=O)c1Cl` yielded a z-score of 0.569.
In the case of `COc1cccc2cc(-c3nnc(SCC(=O)Nc4cc(C(F)(F)F)ccc4Cl)n3N)oc12`, the z-score is reported as -0.754.
Compound `COC(=O)c1cc(OC)c(OC)cc1NC(=O)Nc1ccccc1OC` has a z-score of -0.56.
In the case of `O=C(CCC(=O)c1cccs1)NCc1ccc(F)cc1`, the z-score is reported as -0.173.
In the case of `O=S(=O)(c1ccccc1)c1cnn2c(C(F)(F)F)cc(-c3ccc(F)cc3)nc12`, the z-score is reported as 0.0892.
`COc1cccc(C2c3c(oc4ccccc4c3=O)C(=O)N2c2ccccn2)c1` (stereo not drawn) showed a z-score of -0.584.
`CCCCCCNc1nc(-c2ccc(OC)cc2)c(CCC(=O)O)s1` gave a z-score of -0.372.
Compound `CCCCNC(=O)NS(=O)(=O)c1cnccc1Sc1ccc(Cl)cc1` has a z-score of 0.0156.
With `CCOC(=O)CN1C(=O)c2ccccc2C1=O` the z-score was -0.0635.
For `O=C1c2ccccc2C2=Nc3ccccc3SC(c3ccccc3F)C12` (stereo not drawn), the z-score was 1.05.
`CN(C)S(=O)(=O)c1cccc(-c2cn3cc(Cl)ccc3n2)c1` showed a z-score of -1.
For `Cc1ccc(/C=C2\C(=O)Nc3ccccc32)o1`, the z-score was -0.235.
`COc1cc2c(cc1OC)C(c1ccsc1)CC(=O)N2` (stereo not drawn) gave a z-score of 0.343.
For `Cc1nnsc1NC(=O)OCc1ccc(Cl)cc1Cl`, the z-score was -0.208.
`O=C(Oc1ccccc1C(=O)Nc1ccccc1)c1ccc(Br)c([N+](=O)[O-])c1` was tested, and the z-score was 0.646.
`CN(C)CCCNC1CS(=O)(=O)CC1O` (stereo not drawn) showed a z-score of -0.292.
`O=S(=O)(c1cccc(NC(=S)N2CCN(c3ccc(F)cc3)CC2)c1)C(F)F` gave a z-score of -0.0651.
`Cc1ccccc1NC(=O)c1cc(S(=O)(=O)N2CCOCC2)cs1` was tested, and the z-score was 0.0399.
Compound `CCn1cc(S(=O)(=O)CC(=O)Nc2cc(C)on2)c2ccccc21` has a z-score of 0.0844.
Compound `Cc1ccc(CNC(=O)CS(=O)Cc2nc(-c3ccccc3C)oc2C)cc1` (stereo not drawn) has a z-score of -0.577.
Compound `Cc1cc(C(c2nnnn2Cc2ccccc2)N2CCOCC2)c(C)n1-c1ccc2c(c1)OCO2` (stereo not drawn) has a z-score of -0.223.
With `CC(C)(C)Nc1nc(Oc2ccc(=O)n(-c3ccccc3)n2)nc(N2CCOCC2)n1` the z-score was -2.36.
For `Cc1cccc(COc2ccccc2/C=N/Nc2ccc([N+](=O)[O-])cc2)c1`, the z-score was -0.246.
`O=C(Nc1ccc(Br)cc1)c1cccnc1N1CCCCC1` showed a z-score of -0.47.
`CCCc1nc(N)c(C#N)c(-c2cccnc2)c1CC` was tested, and the z-score was 0.793.
`COCCNC(=O)/C(C#N)=C/C(C)=C/c1ccccc1` gave a z-score of -0.0889.
With `CCOC(=O)c1cc(-c2cccnc2)nn1-c1ccccn1` the z-score was 0.419.
Work on `CC(=O)c1c(C)[nH]c(C(=O)N2CCN(C(=O)c3ccco3)CC2)c1C` yielded a z-score of -0.564.
With `CCOc1ccccc1NC(=O)C1CCN(C(=O)NCc2ccccc2)CC1` the z-score was 0.346.
`O=C1C2C3C=CC(C4CC34)C2C(=O)N1/N=C/c1ccc(-c2ccccc2[N+](=O)[O-])o1` (stereo not drawn) gave a z-score of -0.386.
In the case of `CS(=O)(=O)N(CC(=O)Nc1cccc(Cl)c1Cl)c1ccccc1`, the z-score is reported as 0.0263.
Work on `Cc1ccc(C(c2nnnn2C2CCCC2)N2CCN3CCCC3C2)cc1` (stereo not drawn) yielded a z-score of 0.717.
In the case of `O=C(N=Nc1c(O)[nH]c2ccc(Br)cc12)c1cc(-c2cccc3ccccc23)n[nH]1`, the z-score is reported as -0.0915.
Compound `COc1ccc(C(=O)Nc2cc(C(C)=O)c(/C=C/N(C)C)oc2=O)cc1` has a z-score of -1.53.
Work on `CC1(C)CC(=O)N(CC(=O)NCc2ccc(F)cc2)c2ccccc2S1(=O)=O` yielded a z-score of 0.393.
`COc1cc2c(cc1OC)C(Nc1ccc(S(N)(=O)=O)cc1)=NC(C)(C)C2` was tested, and the z-score was -0.166.
`CCOC(=O)c1c(N)sn(-c2ccccc2)c1=S` gave a z-score of 0.0646.
`COc1cc(C)c(S(=O)(=O)NCc2ccc3c(c2)OCO3)cc1C` gave a z-score of -0.647.
With `O=C(CCSCCc1ccccn1)Nc1c(F)cc(F)cc1Br` the z-score was -0.0918.
Work on `Cc1ccc(-n2nc(C)c(Sc3ccccc3[N+](=O)[O-])c2N)cc1` yielded a z-score of -0.235.
In the case of `Cc1cc2cc(C)c3nnc(SCc4ccccn4)n3c2cc1C`, the z-score is reported as -0.371.
Compound `CCOC(=O)c1c(C)[nH]c(/C(C)=N/O)c1C` has a z-score of -0.215.
For `CCOc1ncccc1C(=O)NCc1ccc(OC)cc1`, the z-score was -0.142.
For `O=C(Nc1ccc(-c2nc3cc(NC(=O)c4cccs4)ccc3o2)cc1)c1cccs1`, the z-score was -0.0965.
